{
  "source": "the supplement of paper PMC12632987",
  "binders": {"B1": {"name": "LC3A_36_1338 (protein)", "chain": "MEVIVASSKREEVEKATEEANKKGADLKLIFTKETTVEEIEENLELILEKAKNISSLIIDIDADTEEELLEKIKVASEMADKLEKEKGVTVIISYDVDEK"}, "B2": {"name": "LC3A_3_1494 (protein)", "chain": "MPELLARLRAELEAAGASPEQIARVLAAARELLARGYEATVERAIALIRRHADLSPRDLVAAFLTTADLALERGLSEAEAVAHAERVFADVAEIEALDEN"}, "B3": {"name": "LC3A_28_1064 (protein)", "chain": "MKVEEEIKKALEEAEEAKKRGEEALITLKIDDSDTEEDVEKKLKTMEEIAELTKDLPSVTILVDVDSSRKEEVTKKVSEVGDRLEKKYPNVTVIIALSEE"}, "B4": {"name": "LC3A_free_39_2212 (protein)", "chain": "SEEELDEIIKEIAKESGLDYEEIKEKLKEIQEVAGLSLEQMKKLAEAILKAVKEGADAKEILERVLKLAKELKAAGKSPEEIAKALIEEVEDYRNLIPLD"}, "B5": {"name": "LC3A_28_1021 (protein)", "chain": "SEMEERVKEIEKEIEKAVAAGEEVVVTFTITPEDSLEEVKEAMERLKKIVIEAGKKGKVSLVVDLEKGVSQEKLDVVMEAGDEIEKEAPNANVIIALEEE"}, "B6": {"name": "LC3A_132_301 (protein)", "chain": "GEELAKKIKKEVKKLVEEAKKNKDNEEKVEEYFEKIEELLKEAEKKLTPEQKAKVFKETADLLDELSKAFLAAGKEQQALEADGLAIEAESLSLRAEKEI"}, "B7": {"name": "LC3A_16_527 (protein)", "chain": "KEEARKTLELLKAAYAALDTDADAFIAKMAEIDPEAAAKLRAAAARPDAKATRYEILAEKLKEFYEEYKDELTEEELAEVENMATAADVEADLERLKLEE"}, "B8": {"name": "LC3A_45_1983 (protein)", "chain": "MYKATIDLLVPRELAEEALELAKRFAEELQKELGPELKVDFEKLEESYEETKDEEDVYLELDIYHPDKDVALDAADRIVDRLEEELGGKVAAIISVEEVP"}, "B9": {"name": "LC3A_free_39_2269 (protein)", "chain": "SEEELKKAKEEILKLVAPLSKEAQEAVKEILELIEGNVELAKTLLENIEKAKKEGADVEALIKEALKLVKELKEKGASPEEIIKELNELANDFINLIPID"}, "B10": {"name": "LC3A_free_39_2241 (protein)", "chain": "SMEELEKLIKEIAEKSGLPYEEVKAKIKEIQEVAGLSDEQMLEIAKAILEAVEAGADGKEILEKSLEIAKELKAEGKSPEEILEAILEYIEDMRNLVPLD"}, "B11": {"name": "LC3A_free_8_2508 (protein)", "chain": "MDQSVVDTLVKLLDEMEKKLVEKLKELGASRLDILDIEILIGSAIAEVYDLSDSSMEELLKSLTESLEEIIERAKEISEELAELAKESAEKILKTLEEAS"}, "B12": {"name": "LC3A_28_1161 (protein)", "chain": "SAVDESIAAARAAAEAAIAAGEPAVVEIVVTPDTTEEDTEKIIAALEELAARGEEHGLLDILVDVEAGVKQEHIDKIADAAEEIEERYPRVTIIIALDEE"}, "B13": {"name": "LC3A_free_26_2137 (protein)", "chain": "SEYIDIALLDEAEELLEKLAKELKKAGPEYKELAEKAEEALKLLEEETLESLKKAKEILEEMIKELKKLLKKDPKFMEEQLKKAEEALELVEEIIKIMES"}, "B14": {"name": "LC3A_free_39_2208 (protein)", "chain": "SEEELEKLIKKVAEAGGIDYEYVKKKVEEIQKVAGLTIEQMKEIVEAILKAVEAGADAKEILEEILKIAKELKAAGKTPEEIKEAILETIRDFENLVPLD"}, "B15": {"name": "LC3A_45_1961 (protein)", "chain": "MAEAVVLVLVPREEFDRVVAIIREEIERINKEEGLEASVDEEALAAAREEAEREGEGLVEVTIKSEDLNKALDAADRISDRVAERSSPRVATIIEYAEEP"}, "B16": {"name": "LC3A_45_1996 (protein)", "chain": "MAKVTIDVYGDGKAVKAFLELVKKRIEELVKKEGLNLKVDEEALEKELKRAEKEEEVSATLTIYSDATQEAIDAILDAIDAAQKEVGPSVSYIISIEDLP"}, "B17": {"name": "LC3A_3_1861 (protein)", "chain": "MDEIIEEILKLLKELGRSEETIEKARELAEALKERGYLEALKTLLEKLKELKDVSDEILLDMFEDLLEALKTEDLSEEELIKKIKEEARIALSEHEIEEL"}, "B18": {"name": "LC3A_28_833 (protein)", "chain": "SAVDARIAAFLAAAEATKAAGEPGTITMTITSTDTVEEVERLAAAIREAAELISSVPNQSIIVDLDGPISQEKLDILMATADEIEEKYPNVSVIIALPEE"}, "B19": {"name": "LC3A_free_8_2494 (protein)", "chain": "NSQKLVDAAVEGLSKMEEELTEKAKKLGADRLDILDLELLIGSAIAEAISLVDESPEKILEAVKESLKEIIEEAKKISEELAKLAEKLSKEILEKLEKLI"}, "B20": {"name": "LC3A_28_937 (protein)", "chain": "MTVEEQIEKAIKEAEEAKKEGKPAVITLTLRGDDTQEDVELIIEGIEKIAEILKDIKGSAIIVDVEAGVPQEHIDLIADKGEEIEKKYPNINVIIALDED"}, "B21": {"name": "LC3A_141_387 (protein)", "chain": "MKKTFKHTADTDTEQDIFAFFDEVEKELKKMIKESGGKPVKVKVTLKGTNPETGEVVTVKEEFTVTEENVDEAVSGMEIEAVSLLDKVGGTIDITVELEV"}, "B22": {"name": "LC3A_28_1135 (protein)", "chain": "SAGVEEAKKQIDKDAERDKNEEEAFLNVTIKSTATVEEAREIMDHVEEEVEKLKHKKKIYVVVTFEEPVSQEVLDTVVEKGEEIEKKFPNVSVVIALPEE"}, "B23": {"name": "LC3A_free_46_2400 (protein)", "chain": "YKGIIEIDALFDTKEKGEAFAKDVEKAAKELAEKYGVEIEIEVEIEEEPDGTVFVTIKITARAEDKETLEAFVNDLIDKIEEIAEKYNASVIISYEIEEE"}, "B24": {"name": "LC3A_3_1363 (protein)", "chain": "TEALIEATLAALRAAGKSEETIAAVREAMTALAEKGYEEALKVFAEELLAMADLPDELLLEFARDVLAAVEAGKLSEEELIEFIKSEAAVIRSEAEIEEL"}, "B25": {"name": "LC3A_28_810 (protein)", "chain": "SEADEIIEKIKKQAEELKNEEDLALIEVNISGSITVEEAKRIMDEVYREAKKLAEKKKVAVVVNLEEPVSQEVLDLIMERAEELEEEIPNVSVIIALPEE"}, "B26": {"name": "LC3A_free_46_2384 (protein)", "chain": "PKAVIDIDFGAMSLETAKEIAERIREAAREISEEYGVEVEVEVEIIKDEEGEYYLRVRITVRGEDKEKVKAAVDDLLDRIDEIAEEAGVSYIISVEFIDE"}, "B27": {"name": "LC3A_127_190 (protein)", "chain": "NLLEEALRGLREAQELLRKLQKGEISLEEAEKEAKRLLERLEAIAKALADDEVLKEMVEDAKKLLEQAEKAPEEEKKPLLEELFSELALAFALAAVKLEE"}, "B28": {"name": "LC3A_132_330 (protein)", "chain": "MEELYEKLKKEIEEKLEEAKENIDDLERVEELLEEIRELLREAEEKVEPEKFRELAEEAARRLEEIADAADAAGKEEVALLADGLRIEAEARAIRAEEKI"}, "B29": {"name": "LC3A_3_1522 (protein)", "chain": "MEEIKKEIIELLKEMGADEETIEKAKKAIKLLEERGYEKALKTLLEELKKLKNAPPETIAWFVKDVLELLEKKDLSEEEVTKEIKEIARTAKNDSEIEEL"}},
  "note": "Whole data set: some 2,300 sequences, median “median log2 fold change of GCK-ALFA target abundance (FLAG IP / Myc IP barcode read proportion)” near 0.095, cut for the lowest 2% near -0.47. The list shows a part of the results.",
  "data": [
    {"target": "MAP1LC3A, Q9H492", "assay": "median log2 fold change of GCK-ALFA target abundance (FLAG IP / Myc IP barcode read proportion) (log2 ratio); each designed protein is fused to an ALFA-tag nanobody in HEK293 cells to bring the named protein to FLAG-tagged glucokinase (GCK); Myc marks an untargeted standard; higher = target protein stabilised (more abundant)", "settings": "target protein: 3xFLAG-MCP-GCK-ALFA reporter; HEK293 landing pad (RPLP)", "how_it_was_run": "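Sequencing of reverse-transcribed, amplified circular RNA barcodes from anti-FLAG and anti-Myc immunoprecipitates provided the readout for an ALFA-nanobody-fused binder library recombined into HEK293 landing-pad cells. Those cells were induced with 2 μg mL^−1 doxycycline, transfected with a plasmid expressing a FLAG-tagged target and a Myc-tagged standard, and lysed after 48 h. Target abundance is the per-binder median log2 ratio of FLAG to Myc barcode read proportions. Only barcodes at a proportion of ≥10^−7 in both replicates and binders with ≥3 barcodes per replicate were kept, with a 10^−6 pseudocount added before the two replicates were pooled.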", "values": [
      {"binder": "B1", "median log2 fold change": 0.123},
      {"binder": "B2", "median log2 fold change": 0.22},
      {"binder": "B3", "median log2 fold change": -0.0346},
      {"binder": "B4", "median log2 fold change": 0.203},
      {"binder": "B5", "median log2 fold change": -0.0699},
      {"binder": "B6", "median log2 fold change": 0.206},
      {"binder": "B7", "median log2 fold change": 0.339},
      {"binder": "B8", "median log2 fold change": -0.0825},
      {"binder": "B9", "median log2 fold change": 0.2},
      {"binder": "B10", "median log2 fold change": 0.197},
      {"binder": "B11", "median log2 fold change": -0.0314},
      {"binder": "B12", "median log2 fold change": 0.174},
      {"binder": "B13", "median log2 fold change": 0.15},
      {"binder": "B14", "median log2 fold change": -0.0317},
      {"binder": "B15", "median log2 fold change": 0.187},
      {"binder": "B16", "median log2 fold change": 0.101},
      {"binder": "B17", "median log2 fold change": 0.247},
      {"binder": "B18", "median log2 fold change": -0.18},
      {"binder": "B19", "median log2 fold change": 0.385},
      {"binder": "B20", "median log2 fold change": 0.162},
      {"binder": "B21", "median log2 fold change": -0.054},
      {"binder": "B22", "median log2 fold change": -0.213},
      {"binder": "B23", "median log2 fold change": -0.232},
      {"binder": "B24", "median log2 fold change": 0.281},
      {"binder": "B25", "median log2 fold change": -0.105},
      {"binder": "B26", "median log2 fold change": 0.0164},
      {"binder": "B27", "median log2 fold change": -0.0433},
      {"binder": "B28", "median log2 fold change": 0.136},
      {"binder": "B29", "median log2 fold change": 0.317}
    ]}
  ]
}
